According to PubChem BioAssay AID485344 (National Center for Advancing Translational Sciences (NCATS), 2010):
About 6,900 (2%) of roughly 340,000 compounds were called active. Cut-off read from the data, not from the text of the source: active = inhibition above about 30%; inactive = below that, where a call was filed. The entries are a selection whose mix differs from that of the whole data set. Entries without a call were filed so in the source.

target: D(2) dopamine receptor (Homo sapiens) (UniProt P14416); assay: HTS Assay for Allosteric Antagonists of the Human D2 Dopamine Receptor: Primary Screen for Antagonists; settings: HEK293 TREx D2 cells, calcium flux, dopamine EC80; at 10 µM; stronger effect = higher value; note: 0% is about no effect
Chain of UniProt P14416 (P14416 whole entry, looked up): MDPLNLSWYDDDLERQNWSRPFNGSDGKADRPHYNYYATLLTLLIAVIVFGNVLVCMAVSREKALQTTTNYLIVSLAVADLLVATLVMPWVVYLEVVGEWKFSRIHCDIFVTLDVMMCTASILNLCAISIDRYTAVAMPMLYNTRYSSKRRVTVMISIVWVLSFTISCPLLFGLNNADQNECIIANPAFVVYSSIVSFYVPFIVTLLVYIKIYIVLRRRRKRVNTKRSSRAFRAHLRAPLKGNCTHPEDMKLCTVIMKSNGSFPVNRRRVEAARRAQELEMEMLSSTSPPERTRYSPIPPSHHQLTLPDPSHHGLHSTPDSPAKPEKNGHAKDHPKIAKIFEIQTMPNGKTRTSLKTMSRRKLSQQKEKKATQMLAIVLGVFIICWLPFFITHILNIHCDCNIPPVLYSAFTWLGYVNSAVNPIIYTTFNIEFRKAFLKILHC
Procedure, shortened: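 Compounds are added to dye-loaded, induced HEK293 T-REx cells coupled to calcium release via D2; after a 3 min kinetic read an EC80 dopamine stimulus is given and fluorescence is recorded for 3 more min.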

Structure (SMILES)	inhibition
CCC1(c2ccc(F)cc2)NC(=O)N(CC(=O)c2ccc[nH]2)C1=O (configuration not stated)	active: 30.3%
C=Cc1ccc(Cn2c(SCC(=O)N3CCN(c4ccc(F)cc4)CC3)nc3ccccc32)cc1	-0.68%
COC(=O)c1cccc(CN2C(=O)SC(Nc3ccc(C)cc3)C2=O)c1 (configuration not stated)	-4.89%
O=C(NCc1ccc(F)cc1)c1ccc2oc(=O)n(Cc3ccccc3)c2c1	-11.7%
COc1ccccc1NC(=O)C(=O)NCC(c1cccnc1)N1CCc2ccccc2C1 (configuration not stated)	8.86%
COc1cccc(CNC(=O)Cn2c(=O)oc3cc(S(=O)(=O)N4CCCCCC4)ccc32)c1	-3.19%
O=C(CN1CCN(C/C=C/c2ccccc2)CC1)NC(=O)NC1CCCCC1	active: 70.6%
COC(=O)c1ccc(NC(=O)CCc2c(C)nn(-c3ccc(N4CCCCC4)nn3)c2C)cc1	-4.38%
O=C(NCc1ccc2c(c1)CCN2C(=O)c1ccncc1)c1ccccc1F	-27.3%
COc1cccc(OCCn2c(-c3ccc(Br)cc3)nc3ccccc3c2=O)c1	17.4%
COC(=O)c1ccccc1NC(=O)CCS(=O)(=O)c1nc(-c2ccc3c(c2)OCO3)cc(C(F)(F)F)n1	-14.5%
CCOCCCn1c(=N)c(S(=O)(=O)c2ccc(Cl)cc2)cc2c(=O)n3cccc(C)c3nc21	0.789%
COc1ccccc1CNc1ncnc2c1nnn2C	18.1%
COC(=O)c1c(-c2cccs2)csc1NC(=O)c1ccc(C(C)C)cc1	7.38%
O=C(COc1ccccc1)OCc1cc(=O)n2nc(-c3cccs3)sc2n1	-1.57%
Cc1c(Cl)cccc1NC(=O)c1cc2nc(-c3ccc4c(c3)OCO4)cc(C(F)(F)F)n2n1	-0.274%
Cc1ccccc1NC(=O)c1ccc(N(Cc2ccccc2)S(C)(=O)=O)cc1	-10.6%
COc1ccc(CNC(=O)c2cnc3ccc(C)cn3c2=O)cc1	13.3%
CCc1nn(CC(=O)NC(C)CC)c(=O)c2cc3occc3n12 (configuration not stated)	5%
CC(C)(C)OC(=O)N1CCC(c2c(C(=O)Nc3ccc4c(c3)OCO4)cnn2-c2ccccc2)CC1	-13.7%
O=C(Nc1cccc(-c2nc3ccccc3o2)c1)c1cccc2c(Cl)cccc12	-11.4%

Structure (SMILES)	inhibition
Cc1ccc(NC(=O)CCS(=O)(=O)c2ccc3c(c2)oc(=O)n3C)c(Br)c1	5.66%
Cc1ccc2nc(COc3cccc(NC(=O)COc4ccc(F)cc4)c3)cc(=O)n2c1	-9.53%
Cc1c(Cl)cccc1Nc1nn2c(=O)c3ccc(C(=O)N(C)Cc4ccccc4)cc3nc2s1	-2.2%
CCOc1cc(S(=O)(=O)NCCc2c(C)[nH]c3ccc(C)cc23)ccc1Br	-5.83%
Cc1cc(C)cc(-n2c(SCC(=O)NC3CCCCC3)nc3c([nH]c4ccccc43)c2=O)c1	-3.93%
CC(=O)c1cccc(NS(=O)(=O)c2cccc(S(=O)(=O)c3ccc(Br)cc3)c2)c1	-15%
COc1ccc(N2CCN(C(=O)CSCc3ccc(C)cc3)CC2)cc1	-10.3%
O=c1[nH]c(SCc2c(F)cccc2Cl)nc2c1CCCC2	0.728%
CCN(C(=O)c1cc2c(s1)-c1ccccc1OC2)c1cccc(C(F)(F)F)c1	1.09%
COc1ccc(NC(=O)Nc2nnc(N(CC(C)C)CC(C)C)s2)c(OC)c1	-8.38%
COc1ccc(NC(=O)c2cc(C3CC3)nc3c2c(C)nn3-c2ccccc2)cc1OC	28%
Cc1ccc(NC(=O)c2c(NC(=O)C(F)(F)F)sc3c2CCCCC3)cc1	-2.52%
O=C1N[C@@H](Cc2cnc[nH]2)C(=O)N2CCC[C@@H]12	active: 45.2%
Cc1ccc(CNC(=O)Cn2cccc2C(=O)c2ccccc2C)cc1	0.531%
COc1ccc(Cl)cc1NC(=O)CCn1c(=O)oc2ccccc21	24.7%
Cc1ccccc1NC(=O)CSc1ccc(-c2cccs2)nn1	-10.1%
O=c1[nH]c(SCc2ccc([N+](=O)[O-])cc2)nc2c1CCCC2	20.9%
Cc1ccc(NC(=O)c2ccc(OCc3c(C)noc3C)cc2)nc1	active: 34.1%
CCc1ccc(NC(=O)C(=O)NCCc2sc3nc(-c4ccc(OC)cc4)nn3c2C)cc1	-8.88%
Cc1ccc(CNc2nc3ccc(C)cc3n3nnnc23)cc1	2.56%
Cc1ccc(NS(=O)(=O)c2ccc(-c3cc(C)no3)cc2)c(Br)c1	-11%

Structure (SMILES)	inhibition
Cc1ccc(CCNC(=O)c2c(C)nn(-c3ccc(F)cc3)c2-n2cccc2)cc1	-5.7%
CC1=C(C(=O)Nc2ccccc2)C(c2ccc(O)cc2)n2nc(SCc3ccccc3)nc2N1 (configuration not stated)	22.5%
CCOc1ccccc1NC(=O)N1CCC2(CC1)Oc1ccccc1C(=O)N2Cc1ccccc1F	-0.361%
O=C(Cn1ncc2c3ccccc3n(Cc3ccc(F)cc3)c2c1=O)NCCCN1CCCCC1	-2.85%
N#Cc1c[nH]n2c(NC3CCCC3)c(-c3ccc(Cl)cc3)nc12	5.01%
CC(C)N(Cc1ccccc1)C(=O)CN1C(=O)CSc2ccc(S(=O)(=O)N3CCCC3)cc21	-2.71%
Cc1c(C(=O)N2CCC(C)CC2)c(S(=O)(=O)Nc2ccc(OC(F)(F)F)cc2)c(C)n1C	-9.03%
Cc1ccc(NC(=O)CC2S/C(=N/N=C/c3ccco3)NC2=O)cc1Cl (configuration not stated)	active: 32.7%
CCn1cc(C(=O)N2CCN(c3ccc(OC)cc3)CC2)c(=O)c2cc(S(=O)(=O)N3CCOCC3)ccc21	19.5%
COc1ccc2[nH]cc(CCN=C(NC(=O)c3ccccc3C)Nc3nc(C)cc(C)n3)c2c1	5.51%
COc1ccc(OCC(=O)Nc2ccc(-c3nc4cc(C)c(C)cc4o3)cc2)cc1	4.2%
COc1cc(OC)c(N(C)C(=O)c2sc3nc4n(c(=O)c3c2C)CCCCC4)cc1Cl	18.7%
Cc1cc(Nc2cc(F)ccc2C)nc(-n2nc(C)cc2C)n1	-0.12%
Cc1cc2c(cc3c(SCc4ccccc4Cl)nnc(C)n32)o1	4.43%
CCN(C(=O)C1CCCN(c2ncnc3c2nc2n3CCCCC2)C1)c1cccc(Cl)c1 (configuration not stated)	-5.28%
Cc1cc(NC(=O)c2ccc(NC(=O)CCS(=O)(=O)c3cccs3)cc2)ccc1Br	6.31%
Cc1c(CCNC(=O)C(C)(C)C)sc2nc(-c3ccc(F)cc3)nn12	-21.1%
CC(=O)c1ccc(NC(=O)COCc2cc(-c3ccc(F)cc3)on2)cc1	-2.85%
COc1ccccc1NC(=O)C1=C(C)Nc2nc(SCc3ccccc3)nn2C1c1ccncc1 (configuration not stated)	11.3%
O=C(Nc1ccc(C(F)(F)F)cc1)C(Cc1ccccc1)n1cccc1 (configuration not stated)	-8.66%
